# Laboratory results taken from the supplement of paper PMC11417369.
# ± gives the standard deviation of the averaged measurements. The list shows a part of the results.
# Test system: PfAP2-LT AP2 domain (GST-tagged)
# Assay: gcPBM binding intensity (ln(normalized median fluorescence intensity)); higher = stronger DNA binding
# Procedure, shortened: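 GST-tagged P. falciparum DNA-binding domains produced in E. coli were incubated for 1 h on an Agilent 4 × 180k array of primer-extended double-stranded 36-bp intergenic genomic probes with negative controls. Binding intensity is the highest Masliner-normalised natural-log median intensity across replicate spots of either probe orientation, with bound protein detected by Alexa488 anti-GST antibody at 488 nm.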
row,Sequence,gcPBM binding intensity (ln)
1,CATACAGATATATATACACACATACAGATAAATACA [CACACA_site4592],9.3 ± 0.28
2,AAAAAAATAAGTATTGAACAATTAAGGAAAAACATG [GTGCAC_negctrl_site464],8.77 ± 0.47
3,CTTATAAAAAAAAAAACATGCAACAGTAAAGAACAA [TGCATGCA_site892],8.88 ± 0.41
4,AACATACATAAACACACACACACACCCACAGAGACA [CACACA_site4430],10.29 ± 0.035
5,GGTAATTTTTTTTAAATACACACTGAAATGTGAATT [CACACA_site564],8.56 ± 0.49
6,CTTGTCATTGGGCACACACACATGTATAGGTTATTA [CACACA_site3058],9.36 ± 0.3
7,TGAACACCCACAAATACACACAAAAAAAATAAATAA [CACACA_site248],9.28 ± 0.51
8,ATTTTTTTTCATATAACACACACACTAATATAATGT [CACACA_site9226],9.45 ± 0.43
9,GAGTAAACATATATATGTACATAAAGTTAACATTGC [XGTACX_site2225],9.11 ± 0.41
10,ATATATTATATAATATGTACATAATAAAATTTAAAT [XGTACX_site1900],8.85 ± 0.42
11,TTTTTATTTATATATATATATATATATTATATATAA [CACACA_negctrl_site1654],8.77 ± 0.31
12,ATCTAAATAATATATATATATAATATTAATAATATA [CACACA_negctrl_site1620],8.44 ± 0.49
13,ACAAGATCTAGATACACACACATATCTCTCAATCTA [CACACA_site6453],9.36 ± 0.36
14,GTAAAAAAATAGCACACACACAAAAACACGCACAAA [CACACA_site6723],10.1 ± 0.23
15,GGGACAGGACGAAAAAATAAATAAATAAATAAAAAA [CACACA_negctrl_site155],8.65 ± 0.71
16,AATAATTGAAAAACACAAAAATGATTTTCCATAAAT [CACACA_negctrl_site1555],8.46 ± 0.54
17,AATAAATAAATATATACACACATATCTGTCTACATA [CACACA_site5708],9.01 ± 0.37
18,TTAAGATATGTATATCGTACATGACATTAAAAATTT [XGTACX_site3352],8.52 ± 0.41
19,AATGGTATAATCAATACACACATAATATATATATTG [CACACA_site1658],8.95 ± 0.39

row,Sequence,gcPBM binding intensity (ln)
1,AAATAAATACACATATGTACATATTTTATTTTATTT [XGTACX_site2357],8.76 ± 0.45
2,TAAAAAAAATACAAAAGTACACAAAATTATACGTTA [XGTACX_site4656],8.77 ± 0.49
3,TTGTTAAAAGTATCCATTCTTTATTACTTTTGTTTA [XGTACX_negctrl_site532],8.59 ± 0.57
4,TCGTAAACATATTGAAAAATATAAAAAGGGGTAATA [CACACA_negctrl_site619],8.71 ± 0.56
5,ATTGGGTACAAATACACACACATATATATATTAATA [CACACA_site2376],9.47 ± 0.41
6,TGTACCTTATTAATATATTTAACTCGCCTTATATAC [XGTACX_negctrl_site289],8.96 ± 0.36
7,CAAATATAAATATATACATGCATCTATCTATATAAA [TGCATGCA_site369],8.64 ± 0.49
8,AATCAAAAATCAAACGCATGTAGTATAATAGATAAG [TGCATGCA_site753],9.05 ± 0.36
9,AAATTGTAGCACCAAGCATGCTAAAAGGACATATGA [TGCATGCA_site717],8.96 ± 0.35
10,AAATTATATCATTTATTTTTTTATATTTTTTATATT [CACACA_negctrl_site685],8.53 ± 0.64
11,AATTTCCTTTTTTAAAGTACACAAAAGTTCACTTTG [XGTACX_site4460],8.53 ± 0.54
12,TATAATTTATTAAGGGGTACATATATTTCATGATAA [XGTACX_site5141],8.7 ± 0.29
13,AAGATTAAAAATTGCACACAAAAATATATTTTCTAT [CACACA_site1305],8.83 ± 0.48
14,TAGTATAAAATTATGTGTACACAAATATAACTTTTC [XGTACX_site5971],8.87 ± 0.43
15,TATTTATTGTGATACTTTTATTGTTTAATGATTAAA [CACACA_negctrl_site495],8.46 ± 0.53
16,AAAAAAAAAAAAAGGTGTACAAGTATAATTACATAA [XGTACX_site534],8.75 ± 0.54
17,AAATTATATCAATGTTGTACATATTATTTTTTTCTC [XGTACX_site5948],8.78 ± 0.52
18,AAAAAAAAAAATATCACACACACATAAATATAAACC [CACACA_site2278],9.82 ± 0.24
19,TAATGAATTTAAATTTTAAAATTAATAAAAAAAATA [TGCATGCA_negctrl_site15],8.16 ± 0.5

row,Sequence,gcPBM binding intensity (ln)
1,CAAAATGTTTCTCATTGTACACAAAATAAATGTCCT [XGTACX_site6798],8.61 ± 0.44
2,ATACATATGTATATTTGTACATATTAGACAATCTTA [XGTACX_site6706],8.72 ± 0.35
3,ACATTTACAAGGAAAGTGCATATAAGAAAAATAAAA [GTGCAC_site9587],8.76 ± 0.47
4,ATTAGTAAATTTATATGTACACATTGTTATTTTATA [XGTACX_site1177],8.86 ± 0.44
5,ATTCTATTATAATACACACCCAAATATTAAAAAGAT [CACACA_site2960],8.99 ± 0.4
6,CCACATGATATGATTACACACATATATATATTTACA [CACACA_site164],9.11 ± 0.37
7,TATTATATATATATATGTACATATATATGCTAAAAA [XGTACX_site5297],8.81 ± 0.26
8,GATGTTGCAAAATTCTGTACATATAAATGTATACAT [XGTACX_site5009],8.87 ± 0.38
9,TATTTATTAAAACACACACACACACCCACAAAATAA [CACACA_site241],10.04 ± 0.099
10,ATAATATATATATAAACACACAAAAAAAATTATATA [CACACA_site1534],8.96 ± 0.42
11,ATTTTTTTTTATGATACACACTTGGATAATTAAAAC [CACACA_site4473],8.71 ± 0.42
12,TTATTCATTTTTATTTGTACATAATTATATGAAATT [XGTACX_site6389],8.52 ± 0.34
13,TTTTATATTTTATGCACACTTATAAGAAATATGTAC [CACACA_site3040],8.82 ± 0.46
14,GGAAAAAAAAATAAATGTACGAATTAACATATCAAA [XGTACX_site5653],8.71 ± 0.47
15,ACACAAGCACACAAATGTACATATATATATATATAT [XGTACX_site5146],9.88 ± 0.49
16,TTATTTTCCCTTTGTGCATGCAGTTTACTTTTTGTG [TGCATGCA_site993],9.38 ± 0.38
17,ACACATATATTAAATGTGCACTGAAATATGCATATA [GTGCAC_site9936],9.05 ± 0.33
18,ACTTGTAAGAGACACACACACACACGGATATAAATA [CACACA_site6517],10 ± 0.36
